# Source: the supplement of paper PMC8728848
# This is one part of the list.
# B1: Clec2 (Mus musculus), Q9JL99 (protein)
# chain: MQDEDGYITLNIKPRKQALSSAEPASSWWRVMALVLLISSMGLVVGLVALGIMSVTQQKYLLAEKENLSATLQQLAKKFCQELIRQSEIKTKSTFEHKCSPCATKWRYHGDSCYGFFRRNLTWEESKQYCTEQNATLVKTASQSTLDYIAERITSVRWIGLSRQNSKKDWMWEDSSVLRKNGINLSGNTEENMNCAYLHNGKIHPASCKERHYLICERNAGMTRVDQLL
# Tests used:
# Assay in all cases: glycan array binding signal (z-score within array); higher = stronger binding
# Conditions in all cases: glycan notation: IUPAC condensed, linker removed
# Fuc(a1-2)Gal = target: Fuc(a1-2)Gal
# Procedure, shortened: (§1)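 From the Consortium for Functional Glycomics database, 3228 arrays were curated, keeping only those whose protein sequence was available. Binding is given as a within-array Z-score averaged across arrays sharing a protein sequence and across linkers. Negative Z-scores can be read as non-binding.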
# Fuc(a1-2)Gal(b1-3)GalNAc = target: Fuc(a1-2)Gal(b1-3)GalNAc
# Procedure, shortened: as §1
# [1] = target: Fuc(a1-2)Gal(b1-3)GalNAc(a1-3)[Fuc(a1-2)]Gal(b1-4)Glc
# Procedure, shortened: as §1
# [2] = target: Fuc(a1-2)Gal(b1-3)GalNAc(a1-3)[Fuc(a1-2)]Gal(b1-4)GlcNAc
# Procedure, shortened: as §1
# [3] = target: Fuc(a1-2)Gal(b1-3)GalNAc(b1-3)Gal
# Procedure, shortened: as §1
# [4] = target: Fuc(a1-2)Gal(b1-3)GalNAc(b1-3)Gal(a1-4)Gal(b1-4)Glc
# Procedure, shortened: as §1
# [5] = target: Fuc(a1-2)Gal(b1-3)GalNAc(b1-4)[Neu5Ac(a2-3)]Gal(b1-4)Glc
# Procedure, shortened: as §1
# Fuc(a1-2)Gal(b1-3)GlcNAc = target: Fuc(a1-2)Gal(b1-3)GlcNAc
# Procedure, shortened: as §1
# [6] = target: Fuc(a1-2)Gal(b1-3)GlcNAc(b1-2)Man(a1-3)[Fuc(a1-2)Gal(b1-3)GlcNAc(b1-2)Man(a1-6)]Man(b1-4)GlcNAc(b1-4)GlcNAc
# Procedure, shortened: as §1
# [7] = target: Fuc(a1-2)Gal(b1-3)GlcNAc(b1-2)Man(a1-3)[Fuc(a1-2)Gal(b1-3)GlcNAc(b1-2)Man(a1-6)]Man(b1-4)GlcNAc(b1-4)[Fuc(a1-6)]GlcNAc
# Procedure, shortened: as §1
# [8] = target: Fuc(a1-2)Gal(b1-3)GlcNAc(b1-3)Gal(b1-4)Glc
# Procedure, shortened: as §1
# [9] = target: Fuc(a1-2)Gal(b1-3)GlcNAc(b1-3)GalNAc
# Procedure, shortened: as §1
# [10] = target: Fuc(a1-2)Gal(b1-3)GlcNAc(b1-3)[Fuc(a1-2)Gal(b1-3)GlcNAc(b1-6)]GalNAc
# Procedure, shortened: as §1
# [11] = target: Fuc(a1-2)Gal(b1-3)GlcNAc(b1-3)[Gal(b1-4)GlcNAc(b1-6)]Gal(b1-4)Glc
# Procedure, shortened: as §1
# [12] = target: Fuc(a1-2)Gal(b1-3)GlcNAc(b1-3)[Neu5Ac(a2-6)Gal(b1-4)GlcNAc(b1-6)]Gal(b1-4)Glc
# Procedure, shortened: as §1
# [13] = target: Fuc(a1-2)Gal(b1-3)GlcNAc6S
# Procedure, shortened: as §1
# [14] = target: Fuc(a1-2)Gal(b1-3)[Fuc(a1-4)]GlcNAc
# Procedure, shortened: as §1
# [15] = target: Fuc(a1-2)Gal(b1-3)[Fuc(a1-4)]GlcNAc(b1-2)Man(a1-3)[Fuc(a1-2)Gal(b1-3)[Fuc(a1-4)]GlcNAc(b1-2)Man(a1-3)]Man(b1-4)GlcNAc(b1-4)GlcNAc
# Procedure, shortened: as §1
# [16] = target: Fuc(a1-2)Gal(b1-3)[Fuc(a1-4)]GlcNAc(b1-2)Man(a1-3)[Fuc(a1-2)Gal(b1-3)[Fuc(a1-4)]GlcNAc(b1-2)Man(a1-6)]Man(b1-4)GlcNAc(b1-4)[Fuc(a1-6)]GlcNAc(b1-4)[Fuc(a1-6)]GlcNAc
# Procedure, shortened: as §1
# [17] = target: Fuc(a1-2)Gal(b1-3)[Fuc(a1-4)]GlcNAc(b1-3)[Fuc(a1-3)[Gal(b1-4)]GlcNAc(b1-6)]Gal(b1-4)Glc
# Procedure, shortened: as §1
# [18] = target: Fuc(a1-2)Gal(b1-3)[Fuc(a1-4)]GlcNAc(b1-3)[Gal(b1-4)GlcNAc(b1-6)]Gal(b1-4)Glc
# Procedure, shortened: as §1
# [19] = target: Fuc(a1-2)Gal(b1-4)Fuc(a1-3)]GlcNAc(b1-2)Man(a1-3)[Fuc(a1-2)Gal(b1-4)[Fuc(a1-3)]GlcNAc(b1-2)Man(a1-6)]Man(b1-4)GlcNAc(b1-4)GlcNAc
# Procedure, shortened: as §1
# Fuc(a1-2)Gal(b1-4)Glc = target: Fuc(a1-2)Gal(b1-4)Glc
# Procedure, shortened: as §1
# Fuc(a1-2)Gal(b1-4)Glc6S = target: Fuc(a1-2)Gal(b1-4)Glc6S
# Procedure, shortened: as §1
# Fuc(a1-2)Gal(b1-4)GlcNAc = target: Fuc(a1-2)Gal(b1-4)GlcNAc
# Procedure, shortened: as §1
# [20] = target: Fuc(a1-2)Gal(b1-4)GlcNAc(b1-2)Man
# Procedure, shortened: as §1
# [21] = target: Fuc(a1-2)Gal(b1-4)GlcNAc(b1-2)Man(a1-3)[Fuc(a1-2)Gal(b1-4)GlcNAc(b1-2)Man(a1-6)]Man(b1-4)GlcNAc(b1-4)GlcNAc
# Procedure, shortened: as §1
# [22] = target: Fuc(a1-2)Gal(b1-4)GlcNAc(b1-2)Man(a1-3)[Fuc(a1-2)Gal(b1-4)GlcNAc(b1-2)Man(a1-6)]Man(b1-4)GlcNAc(b1-4)[Fuc(a1-6)]GlcNAc
# Procedure, shortened: as §1
# [23] = target: Fuc(a1-2)Gal(b1-4)GlcNAc(b1-2)[Fuc(a1-2)Gal(b1-4)GlcNAc(b1-4)]Man(a1-3)[Fuc(a1-2)Gal(b1-4)GlcNAc(b1-2)Man(a1-6)]Man(b1-4)GlcNAc(b1-4)GlcNAc
# Procedure, shortened: as §1
# [24] = target: Fuc(a1-2)Gal(b1-4)GlcNAc(b1-3)Gal(b1-4)GlcNAc
# Procedure, shortened: as §1
# [25] = target: Fuc(a1-2)Gal(b1-4)GlcNAc(b1-3)Gal(b1-4)GlcNAc(b1-2)Man(a1-3)[Fuc(a1-2)Gal(b1-4)GlcNAc(b1-3)Gal(b1-4)GlcNAc(b1-2)Man(a1-6)]Man(b1-4)GlcNAc(b1-4)GlcNAc
# Procedure, shortened: as §1
# [26] = target: Fuc(a1-2)Gal(b1-4)GlcNAc(b1-3)Gal(b1-4)GlcNAc(b1-3)Gal(b1-4)GlcNAc
# Procedure, shortened: as §1
# [27] = target: Fuc(a1-2)Gal(b1-4)GlcNAc(b1-3)GalNAc
# Procedure, shortened: as §1
# [28] = target: Fuc(a1-2)Gal(b1-4)GlcNAc(b1-3)[Fuc(a1-2)Gal(b1-4)GlcNAc(b1-6)]GalNAc
# Procedure, shortened: as §1
# [29] = target: Fuc(a1-2)Gal(b1-4)GlcNAc(b1-3)[Fuc(a1-3)[Gal(b1-4)]GlcNAc(b1-6)]Gal(b1-4)Glc
# Procedure, shortened: as §1
# [30] = target: Fuc(a1-2)Gal(b1-4)GlcNAc(b1-6)GalNAc
# Procedure, shortened: as §1
# [31] = target: Fuc(a1-2)Gal(b1-4)GlcNAc6S
# Procedure, shortened: as §1
binder,measurement,setting,value
B1,glycan array binding signal (z-score),Fuc(a1-2)Gal,-0.183
same,glycan array binding signal (z-score),Fuc(a1-2)Gal(b1-3)GalNAc,-0.371
same,glycan array binding signal (z-score),[1],-0.209
same,glycan array binding signal (z-score),[2],-0.253
same,glycan array binding signal (z-score),[3],9.47
same,glycan array binding signal (z-score),[4],-0.36
same,glycan array binding signal (z-score),[5],-0.265
same,glycan array binding signal (z-score),Fuc(a1-2)Gal(b1-3)GlcNAc,-0.46
same,glycan array binding signal (z-score),[6],1.14
same,glycan array binding signal (z-score),[7],0.612
same,glycan array binding signal (z-score),[8],-0.094
same,glycan array binding signal (z-score),[9],0.239
same,glycan array binding signal (z-score),[10],-0.389
same,glycan array binding signal (z-score),[11],-0.797
same,glycan array binding signal (z-score),[12],-0.541
same,glycan array binding signal (z-score),[13],-0.346
same,glycan array binding signal (z-score),[14],-0.616
same,glycan array binding signal (z-score),[15],1.07
same,glycan array binding signal (z-score),[16],-0.361
same,glycan array binding signal (z-score),[17],-0.19
same,glycan array binding signal (z-score),[18],-0.681
same,glycan array binding signal (z-score),[19],3.96
same,glycan array binding signal (z-score),Fuc(a1-2)Gal(b1-4)Glc,-0.414
same,glycan array binding signal (z-score),Fuc(a1-2)Gal(b1-4)Glc6S,0.021
same,glycan array binding signal (z-score),Fuc(a1-2)Gal(b1-4)GlcNAc,-0.056
same,glycan array binding signal (z-score),[20],0.641
same,glycan array binding signal (z-score),[21],0.979
same,glycan array binding signal (z-score),[22],2.24
same,glycan array binding signal (z-score),[23],0.056
same,glycan array binding signal (z-score),[24],-0.542
same,glycan array binding signal (z-score),[25],-0.086
same,glycan array binding signal (z-score),[26],-0.684
same,glycan array binding signal (z-score),[27],-0.075
same,glycan array binding signal (z-score),[28],0.032
same,glycan array binding signal (z-score),[29],-0.801
same,glycan array binding signal (z-score),[30],-0.493
same,glycan array binding signal (z-score),[31],0.511
